Experimental data from the supplement of paper PMC4604168 (melanoma cell lines).
The other results are listed elsewhere or left out. Repeats are few or missing, and single values can be far off.

These molecules were tested on LOXIMVI (assay: cell count relative to DMSO control; melanoma cells; higher = more viable cells). Settings: library dose: standard library concentration; 72 h.
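Note: cells treated in 1,536-well plates, then fixed and DAPI-stained, with nuclei counted from automated high-throughput microscope images.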

| SMILES | cell count [%] |
| --- | --- |
| COc1cc2c(Oc3ccc4[nH]c(C)cc4c3F)ncnc2cc1OCCCN1CCCC1 [cediranib] + CCN(CC)CCCCNc1ncc2cc(-c3cc(OC)cc(OC)c3)c(NC(=O)NC(C)(C)C)nc2n1 [PD173074] (first compound 2 µM, partner dose 0.5 µM) | 84.5 |
| NC(=O)c1ccc(N(C(N)=O)c2c(F)cccc2F)nc1-c1ccc(F)cc1F + CN(C)S(=O)(=O)c1ccc2c(c1)/C(=C/c1cc3c([nH]1)CCCC3)C(=O)N2 [SU6656] (first compound 2 µM, partner dose 2 µM) | 102 |
| CCCCCCCCc1ccc(CCC(N)(CO)CO)cc1 [fingolimod] + COCC[n+]1c2c(n(Cc3cnccn3)c1C)C(=O)c1ccccc1C2=O [YM155] (first compound 10 µM, partner dose 0.002 µM) | 14.3 |
| CC(C)(C)c1cnc(CSc2cnc(NC(=O)C3CCNCC3)s2)o1 + COc1ccc2c(c1)CCC1C2CCC2(C)C(NCCCCCCN3C(=O)C=CC3=O)CCC12 [U73122] (first compound 0.05 µM, partner dose 2 µM) | 61 |
| CC(C)(C)c1cnc(CSc2cnc(NC(=O)C3CCNCC3)s2)o1 + COc1ccc(COc2ccc(Cc3cnc(N)nc3N)cc2OC)cc1 [GW2580] (first compound 0.05 µM, partner dose 5 µM) | 65.9 |
